Measured values from paper PMC8641752.
Substitutions are numbered along the chain they refer to. No constants are given. Whether binding was seen depends on the method and setting. Binding seen in cells or lysates may run through a third protein. Some entries that bind do so weakly or less than the wild type. For some of these results: Sequences can lack the tags named with a protein.

Sequences of proteins named here, by UniProt entry; tags and fusion partners are left off.
UniProt P25694: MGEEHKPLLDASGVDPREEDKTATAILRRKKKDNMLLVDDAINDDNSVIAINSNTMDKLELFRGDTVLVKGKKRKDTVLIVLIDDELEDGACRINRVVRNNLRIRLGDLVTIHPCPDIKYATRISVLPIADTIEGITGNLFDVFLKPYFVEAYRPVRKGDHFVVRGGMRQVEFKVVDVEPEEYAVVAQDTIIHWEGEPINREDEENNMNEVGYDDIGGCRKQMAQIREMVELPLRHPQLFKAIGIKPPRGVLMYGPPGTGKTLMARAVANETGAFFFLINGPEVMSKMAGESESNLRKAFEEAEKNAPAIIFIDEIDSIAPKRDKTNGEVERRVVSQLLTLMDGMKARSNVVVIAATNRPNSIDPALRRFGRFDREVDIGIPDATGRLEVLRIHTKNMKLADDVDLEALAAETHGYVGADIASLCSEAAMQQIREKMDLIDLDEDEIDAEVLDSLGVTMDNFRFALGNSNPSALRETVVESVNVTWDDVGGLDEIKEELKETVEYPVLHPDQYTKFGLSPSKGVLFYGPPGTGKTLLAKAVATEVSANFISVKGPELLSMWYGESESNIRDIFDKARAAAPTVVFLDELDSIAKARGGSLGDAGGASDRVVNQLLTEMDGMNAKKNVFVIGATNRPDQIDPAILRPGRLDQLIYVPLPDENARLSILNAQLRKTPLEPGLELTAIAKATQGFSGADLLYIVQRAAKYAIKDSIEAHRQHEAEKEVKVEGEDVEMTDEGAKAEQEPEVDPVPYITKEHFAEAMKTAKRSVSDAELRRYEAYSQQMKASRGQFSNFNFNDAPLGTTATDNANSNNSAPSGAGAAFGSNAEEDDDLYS

Legend:
Dfm1-HA (S. cerevisiae) = target: T1, Dfm1-HA (S. cerevisiae) (UniProt Q12743); assay: co-sedimentation; Cdc48 microsome association assay: yeast lysate split into cytosolic supernatant and microsomal pellet by centrifugation; Cdc48 in the pellet of strains expressing the variant, blot with anti-Cdc48
T1 sequence: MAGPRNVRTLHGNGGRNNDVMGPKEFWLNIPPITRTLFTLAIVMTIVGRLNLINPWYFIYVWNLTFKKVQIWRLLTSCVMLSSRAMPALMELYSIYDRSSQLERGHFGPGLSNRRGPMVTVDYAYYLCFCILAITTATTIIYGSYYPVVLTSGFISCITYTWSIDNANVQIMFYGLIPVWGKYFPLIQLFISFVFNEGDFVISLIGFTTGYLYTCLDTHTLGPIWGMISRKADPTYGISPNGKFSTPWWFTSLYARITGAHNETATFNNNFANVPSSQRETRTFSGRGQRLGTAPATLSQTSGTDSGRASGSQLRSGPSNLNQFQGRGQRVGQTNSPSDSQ

[1] = target: T2, Dfm1-L64V (S. cerevisiae) (UniProt Q12743); assay: as above
T2 sequence: T1 sequence with L64V

Hmg2-GFP (S. cerevisiae) [2] = target: T3, Hmg2-GFP (S. cerevisiae) (UniProt P12684); assay: co-IP; substrate (Hmg2-GFP, Ste6*-GFP, CPY*-GFP with GFP-Trap; Pdr5*-Myc with Myc Trap) precipitated from yeast microsomes solubilised in Tween IP buffer (500 mM NaCl, 50 mM Tris pH 7.5, 10 mM EDTA, 1.5% Tween-20), overnight 4°C; blots with anti-HA, anti-Cdc48
T3 sequence (chain, polyubiquitin chain conjugated in cells (sites not printed)): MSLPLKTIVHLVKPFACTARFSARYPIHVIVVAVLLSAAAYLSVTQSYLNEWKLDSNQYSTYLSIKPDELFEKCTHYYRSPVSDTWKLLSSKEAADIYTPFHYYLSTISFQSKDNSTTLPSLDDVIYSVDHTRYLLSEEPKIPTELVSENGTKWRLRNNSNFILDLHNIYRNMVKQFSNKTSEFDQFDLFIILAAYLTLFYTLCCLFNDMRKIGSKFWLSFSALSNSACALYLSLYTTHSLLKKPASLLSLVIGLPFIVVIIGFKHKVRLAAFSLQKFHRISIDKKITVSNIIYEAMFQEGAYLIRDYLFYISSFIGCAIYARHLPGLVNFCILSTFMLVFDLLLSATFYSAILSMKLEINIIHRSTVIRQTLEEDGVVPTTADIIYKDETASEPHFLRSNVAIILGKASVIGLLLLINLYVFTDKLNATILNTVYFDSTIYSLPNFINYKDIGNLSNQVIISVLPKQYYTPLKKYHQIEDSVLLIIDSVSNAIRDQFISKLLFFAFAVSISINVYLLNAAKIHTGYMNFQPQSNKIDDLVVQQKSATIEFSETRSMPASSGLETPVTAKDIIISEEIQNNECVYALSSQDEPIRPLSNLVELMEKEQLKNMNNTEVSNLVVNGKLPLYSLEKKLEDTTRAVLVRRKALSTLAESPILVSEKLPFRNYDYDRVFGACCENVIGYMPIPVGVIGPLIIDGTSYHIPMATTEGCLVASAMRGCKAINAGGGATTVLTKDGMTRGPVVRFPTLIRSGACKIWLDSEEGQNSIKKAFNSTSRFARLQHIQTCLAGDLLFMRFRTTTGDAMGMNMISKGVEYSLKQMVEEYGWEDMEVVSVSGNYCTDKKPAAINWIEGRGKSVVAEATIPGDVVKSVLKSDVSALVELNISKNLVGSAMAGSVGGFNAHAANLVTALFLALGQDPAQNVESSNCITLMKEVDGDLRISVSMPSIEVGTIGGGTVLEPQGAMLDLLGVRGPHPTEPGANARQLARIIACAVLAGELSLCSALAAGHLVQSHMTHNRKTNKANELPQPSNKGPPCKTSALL

Hmg2-GFP (S. cerevisiae) [3] = target: T3, Hmg2-GFP (S. cerevisiae); assay: condition: only with added free Lys48-linked polyubiquitin chains (2, 5, and 10 μg); co-IP; free polyubiquitin competition test: solubilised microsomes incubated with Lys48-linked polyubiquitin chains (2, 5, 10 μg) or buffer for one hour at 4°C, then GFP-Trap precipitation of Hmg2-GFP; blots for Cdc48, Dfm1-HA

Substance: Cdc48 (from UniProt P25694 1-835)
- binding (Dfm1-HA (S. cerevisiae)): binds
- binding [1]: binds
- binding (Hmg2-GFP (S. cerevisiae) [2]): binds
- binding (Hmg2-GFP (S. cerevisiae) [3]): no binding
